Laboratory results published in PubChem BioAssay AID588855 (National Center for Advancing Translational Sciences (NCATS), 2011).
Screen size: about 410,000 compounds; about 5,000 (1.2%) were called active. This list was built around the results that the source calls inconclusive (neither active nor inactive); the mix of calls is not that of the screen. The call rests on the fitted dose curve; in most records, active means well fitted inhibition curve with a large enough effect; inconclusive means small, poorly fitted or top-dose-only effect; inactive means no such curve, though single readings can be large or run the other way. Where the call is inconclusive, the potency comes from a doubtful curve fit.

Experiment: qHTS for Inhibitors of TGF-b; further: nearly all actives have a fitted effect of over 65% in size
Details: HepG2 CAGA-GFP TGF-b/SMAD3 reporter, GFP fluorescence, 18 h, TGF-beta stimulated, 500 pg/mL final; series mostly up to 46.1 µM
Outline: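 HEPG2 CAGA-GFP reporter cells (1000/well, DMEM with 1% FBS) received compounds, then recombinant TGF-beta at 500 pg/mL final for 18 hours at 37 degrees C. Per-cell GFP summed per well was normalised to unstimulated and stimulated DMSO controls before curve fitting.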
Potency means the concentration at half of the fitted maximal effect; tags describe the fitted curve by direction and shape.

| Compound | Potency |
| --- | --- |
| COc1ccc(Oc2nc(-c3ccccn3)ncc2OC)cc1 | inactive |
| COc1ccc(CNc2oc(-c3ccc(COc4ccc(OC)cc4)o3)nc2C#N)cc1 | inactive |
| O=C(Cc1ccc([N+](=O)[O-])cc1)N/N=C/c1ccc([N+](=O)[O-])o1 | active: 15.8 µM |
| O=C(Nc1nc(-c2ccccn2)cs1)c1ccc(Cl)s1 | inconclusive: 5.62 µM [inhibitor, partial curve, poor fit] |
| CC(=O)N1CCCc2cc(S(=O)(=O)Nc3ccc(C)c(F)c3)ccc21 | inconclusive: 35.5 µM [inhibitor, partial curve, poor fit] |
| O=C(/C=C/c1ccccc1[N+](=O)[O-])Nc1cccc(S(=O)(=O)NC2=NCCCCC2)c1 | inactive |
| Fc1ccc(F)c(C2=NNC(=Nc3ccccc3F)SC2)c1 | inconclusive: 35.5 µM [inhibitor, single point] |
| NC(=O)CC(NC(=O)c1ccccc1)c1ccc(NC2CCCCCCC2)c([N+](=O)[O-])c1 (stereo unspecified) | inactive |
| CCN1C(=O)C(Cc2nc3ccccc3c(=O)n2-c2ccccc2)c2cc(Br)ccc21 (stereo unspecified) | inconclusive: 22.4 µM [inhibitor, single point] |
| CC(C)COP(=O)(OCC(C)C)C(O)c1ccc(N(C)C)cc1 (stereo unspecified) | inactive |
| C[C@@H]1CN([C@@H](C)CO)C(=O)CCCn2nncc2CO[C@H]1CN(C)C(=O)OCc1ccccc1 | inactive |
| Cc1ccc(S(=O)(=O)N2CCN(CC(O)COc3ccccc3)CC2)cc1 (stereo unspecified) | inactive |
| CC(=O)NCCC(=O)N1CCCC(N2CCN(c3cccc(Cl)c3)CC2)C1 (stereo unspecified) | inactive |
| COc1cc(CN2CCNC(=O)C2CC(=O)NC2CCC2)cc(OC)c1 (stereo unspecified) | inactive |
| CCOC(=O)c1cnc(SCc2ccccc2)nc1N | inconclusive: 35.5 µM [inhibitor, single point] |
| COCCCNC(=O)C[C@H]1C[C@H](C(=O)N2CCCCC2)[C@@]2(C)c3[nH]c4cc(-c5ccco5)ccc4c3CCN2C1=O | inconclusive: 35.5 µM [inhibitor, single point] |
| Brc1ccc(/C=C2\C=Cc3ccccc32)cc1 | inactive |
| COc1cc(C(=O)Nc2nonc2-c2ccc(C)c(C)c2)cc(OC)c1OC | inactive |
| COc1ccc(-c2csc(N3CCN(c4cc(C)nc5ccccc45)CC3)n2)cc1OC | inconclusive: 11.2 µM [inhibitor, partial curve, poor fit] |
| Cc1ccc(S(C)(=O)=NS(=O)(=O)c2cccc3nsnc23)cc1 (stereo unspecified) | inactive |
| O=C(O)C1CCCN(S(=O)(=O)Cc2ccccc2)C1 (stereo unspecified) | inactive |
| N#C/C(=C/c1ccc(N2CCOCC2)o1)c1ccc(Cl)cc1 | inactive |
| CCCCNC(=O)c1ccc2nc(CC)c(N(C)Cc3ccc(OC)cc3)n2c1 | inactive |
| Fc1ccccc1/C=C1\CCCC2=C1NC(=S)NC2c1ccccc1F (stereo unspecified) | inconclusive: 35.5 µM [inhibitor, single point] |

| Compound | Potency |
| --- | --- |
| C=CCOc1ccc(/C=C/C(=O)OCC(=O)NNC(=O)c2ccccc2F)cc1 | inconclusive: 3.55 µM [inhibitor, single point] |
| CC(C)(C)NC(=O)C(c1ccc(-c2ccccc2)cc1)N(C[C@H]1CC[C@@H]([C@@H]2CC[C@H](CO)O2)O1)C(=O)c1ccccc1F (stereo partly specified) | inconclusive: 17.8 µM [inhibitor, single point] |
| O=C(Nc1ccc2nc(SCC(=O)N3CCc4ccccc43)sc2c1)c1ccccc1F | inconclusive: 6.31 µM [inhibitor, single point] |
| CCCCCC1CC(CC(=O)NC(=S)Nc2ccc([N+](=O)[O-])cc2)C(=O)O1 (stereo unspecified) | inactive |
| CC(NC(=O)CCC(=O)Nc1ccccc1O)c1ccccc1 (stereo unspecified) | inactive |
| COc1ccc(-c2ccc(N(C)C)cc2)cc1[C@H]1[C@H]2C=CC[C@@H](C)[C@@H]2C(=O)N1Cc1ccccc1 | inconclusive: 35.5 µM [inhibitor, single point] |
| CCO[C@@H]1OC(C(=O)NCc2nc3ccccc3[nH]2)=C[C@H](c2coc3ccccc3c2=O)[C@H]1CCCO | inconclusive: 14.1 µM [inhibitor, single point] |
| CC1=C(c2ccc(C)c(C)c2)S(=O)(=O)N=C1N1CCC(C(=O)NC(C)Cc2ccco2)CC1 (stereo unspecified) | inconclusive: 14.1 µM [inhibitor, single point] |
| COc1ccc(OC)c(CNC(=O)Cn2nc(C)c3c(C)n(-c4ccc(C)cc4)nc3c2=O)c1 | inconclusive: 2.82 µM [inhibitor, full curve] |
| Cn1cc(S(=O)(=O)c2ccccc2)c(=O)c2cc(F)c(N3CCCCCC3)cc21 | inconclusive: 2.24 µM [inhibitor, partial curve, poor fit] |
| Cc1cnc([N+](=O)[O-])n1CCOC(=O)NC(=O)c1cccc(F)c1 | inconclusive: 2.24 µM [inhibitor, single point] |
| CC(=O)Nc1ccc(SCC(=O)Nc2ccccc2-c2ccccc2)cc1 | inactive |
| Cc1ccc(C(=O)NCc2ccc(F)cc2)cc1NC(=O)c1nsc2ccccc12 | inconclusive: 5.62 µM [inhibitor, full curve, poor fit] |
| COc1ccccc1C(=O)NNC(=O)c1ccc(Br)o1 | inactive |
| O=C1C=CC(=O)N1c1ccc(-c2nc3ccccc3o2)cc1 | inconclusive: 14.1 µM [inhibitor, single point] |
| CC(=O)Nc1cccc(-c2cc3c(c4c2ccn4C)C2CCC3O2)c1 (stereo unspecified) | inconclusive: 7.94 µM [inhibitor, partial curve, poor fit] |
| Nn1c(Cc2cccc3ccccc23)nnc1SCC(=O)N1CC(=O)Nc2ccccc21 | inconclusive: 6.31 µM [inhibitor, single point] |
| CCN(CC)CCNC(=O)c1sc2ncccc2c1-n1cccc1 | inactive |
| Cc1nc(/C=C/c2ccccc2)[nH]c(=O)c1-c1ccccc1 | inactive |
| CC(=O)c1ccc(NC(=O)CCc2nc3sc4c(c3c(=O)[nH]2)CCCC4)cc1 | inactive |
| CCc1ccc(OCC(=O)NC(NC(=S)Nc2ccccc2C)C(Cl)(Cl)Cl)cc1 (stereo unspecified) | inconclusive: 31.6 µM [inhibitor, single point] |
| c1ccc2c(c1)nc(-c1ccncc1)n2CCNc1nc(CN2CCCCC2)cs1 | inconclusive: 7.94 µM [inhibitor, partial curve, poor fit] |
| COCCn1c(-c2ccccc2)cnc1SCC(=O)Nc1cccc2ccccc12 | inconclusive: 14.1 µM [inhibitor, partial curve, poor fit] |
| Fc1ccccc1Cc1noc(CN2CCC(OCc3cccnc3)CC2)n1 | inactive |

| Compound | Potency |
| --- | --- |
| O=C(CCC(=O)N1CCOc2ccc(Cl)cc21)N1CCN(c2ccccn2)CC1 | inactive |
| COc1cccc(N2CCN(S(=O)(=O)c3ccc(-c4ccno4)cc3OC)CC2)c1 | inactive |
| Nc1ccccc1C(=O)Nc1cccc(C(=O)O)c1 | inactive |
| COc1cccc(Cn2nnc(C(=O)Nc3cc(C)ccc3OC)c2N)c1 | inconclusive: 0.398 µM [inhibitor, partial curve, poor fit] |
| O=C(CSc1cn(CC(=O)N2CCCCC2)c2ccccc12)Nc1ccc(C(F)(F)F)cc1 | inactive |
| CCC(C)c1ccc(C(C)NC(=S)NC2CCCCC2)cc1 (stereo unspecified) | inconclusive: 11.2 µM [inhibitor, partial curve] |
| CCn1cc(CN2CCN(C)C(CCO)C2)c2ccccc21 (stereo unspecified) | inactive |
| Cc1cccc(C)c1NC(=O)N1CCC(n2c(=O)[nH]c3ccccc32)CC1 | inconclusive: 3.16 µM [inhibitor, single point] |
| CCc1cccc(Nc2ncnc3onc(-c4ccc(F)cc4)c23)c1 | inconclusive: 35.5 µM [inhibitor, single point] |
| CCN(CC)c1nc(OCCNC(=O)Nc2ccccc2)nc(N(CC)CC)n1 | inconclusive: 25.1 µM [inhibitor, partial curve, poor fit] |
| O=S(=O)(c1ccc(N2CCCC2)cc1)C(F)(F)F | inconclusive: 8.91 µM [inhibitor, partial curve, poor fit] |
| CCn1c(CCl)nc2cc(S(=O)(=O)N3CCOCC3)ccc21 | inactive |
| CCCCc1n[nH]c2c1/C(=N/OCC)CC(C)(C)C2 | inconclusive: 8.91 µM [inhibitor, partial curve, poor fit] |
| CC(C)C(=O)Nc1ccc(-c2nc3cccnc3o2)cc1 | inconclusive: 0.891 µM [inhibitor, full curve, poor fit] |
| COc1cc(NC(=O)COC(=O)c2ccc([N+](=O)[O-])s2)cc(OC)c1OC | inconclusive: 20 µM [inhibitor, partial curve] |
| O=C(CCCN1C(=O)/C(=C\c2cccs2)SC1=S)NNC(=O)c1ccncc1 | inactive |
| COC(=O)c1ccc(-c2ccco2)n1Cc1nc(-c2ccc(OC)c(OC)c2)oc1C | inconclusive: 35.5 µM [inhibitor, single point] |
| O=C(c1ccc(C(F)(F)F)cc1)N1CCC(=O)N(C(COCc2ccc(C(F)(F)F)cc2)Cc2ccccc2)CC1 (stereo unspecified) | inconclusive: 0.224 µM [inhibitor, full curve, poor fit] |
| OB(O)c1ccc(Cl)s1 | inactive |
| COC(=O)C1CCN(S(=O)(=O)c2cc3c4c(c2)CC(=O)N4CCC3)CC1 | inactive |
| CCOc1ccc(-n2c(=S)sc3c(=O)[nH]c(SCC(=O)C(C)(C)C)nc32)cc1 | inconclusive: 11.2 µM [inhibitor, partial curve, poor fit] |
| Cc1cccc(NS(=O)(=O)c2ccc3c(c2)CCN3C(=O)C2CCC2)c1 | inconclusive: 5.62 µM [inhibitor, full curve, poor fit] |
| Cn1c(SCC(=O)Nc2nc3ccccc3s2)nnc1-c1ccccc1 | inconclusive: 12.6 µM [inhibitor, single point] |
